The source of these data is PubChem BioAssay AID463173 (ICCB-Longwood Screening Facility, Harvard Medical School, 2010).

The whole screen tested about 52,000 compounds, of which about 4,300 (8.3%) were called active. Rule as the data show it: active = survival mostly below about 52% (no sharp cut-off); inactive = mostly above about 56%. This is one part of the list.

This test has as its system DeltatarO mutant. Briefly: S. aureus survival, RN4220 and DeltatarO strains – OD600, teichoic acid synthesis inhibitors, primary screen (AID 463173). To be noted: S. aureus RN4220 wild type/DeltatarO growth, OD600, 18 h, stronger effect = lower value, screened at 18.75 µg/mL (by protocol).
On to `Cc1ccc(N(C)C(=O)C2CCN(S(=O)(=O)c3c(C)noc3/C=C/c3c(C)cc(C)cc3C)CC2)cc1`, for which the survival is inactive: 83%. Next, `COc1cccc(OCCSc2nc(C)c(Cc3ccccc3)c(=O)[nH]2)c1`: inactive: 76%; `COc1ccc(NC(=O)CCCN2C(=O)CCn3nc(-c4cn(C)c5ccccc45)cc32)cc1OC`: inactive: 82%; `CCOC(=O)c1cccc(NC(=O)CC2C(=O)N(c3ccc(OC)cc3)C(=O)N2C2CCCC2)c1` (stereo not given): inactive: 109%. For `Cc1cccc(N2CCN(S(=O)(=O)c3ccc4[nH]c5c(c4c3)CCCCC5)CC2)c1C` the value was inactive: 86%; for `Cc1cccc(C(=O)NCC(=O)OCc2cc(=O)n3nc(C4CCCCC4)sc3n2)c1`, inactive: 91%. Next, `COc1cc(OC)c(NC(=O)CCc2c(C)nc3cc(-c4ccccc4OC)nn3c2C)cc1Cl`: inactive: 80%; `CCN(CC)C(C)C#Cc1ccccc1` (stereo not given): inactive: 95%. In the case of `CC(C)OC(=O)c1c(NC(=O)C2c3ccccc3Oc3ccccc32)sc2c1CCCC2`, the survival was inactive: 93%.

For the compound `Cc1ccc(C)c(N2CCN(C(=O)c3ccc4c(c3)N(Cc3ccc(F)cc3)C(=O)c3ccccc3S4=O)CC2)c1` (stereo not given), the survival is inactive: 101%. Next, `CC1CCC(Nc2nc3c(-c4cccc(C(F)(F)F)c4)nnn3c3ccccc23)CC1` (stereo not given): active: -3%; `CC(CN1CCCCC1)OC(=O)CCc1ccccc1` (stereo not given): inactive: 110%; `Cc1ccc(NC(=O)C2CCCN(S(=O)(=O)c3cn(C(C)C)cn3)C2)c(C)c1` (stereo not given): inactive: 55%. For `CC1(N)CCS(=O)(=O)C1` (stereo not given) the value was inactive: 89%. Take `COc1ccccc1-c1noc(CCC(=O)Nc2ccc(C)cc2C)n1`: the survival was inactive: 87%. Next, `CCOC(=O)CSc1ncnc2sc3c(c12)CCC3`: inactive: 96%; `CCCOc1ccc(CNC(=O)c2ccc(-n3c(C)cc4c3CCC(C)C4)cc2)cc1` (stereo not given): inactive: 97%; `Cc1cc2oc(C(=O)Nc3ccc(S(=O)(=O)Nc4ncccn4)cc3)cc(=O)c2cc1C`: inactive: 53%. For the compound `CCOC(=O)C(O)C(C)(C)CN1C(=O)c2ccccc2C1=O` (stereo not given), the survival was inactive: 76%. For `CCN(C(=O)CSc1nc2ccccc2[nH]1)c1ccccc1` the value was inactive: 85%. Consider `Cc1ccc(NC(=O)Cn2ccn(-c3ccccc3)c(=O)c2=O)cc1`, for which the survival is active: 56%. For `CCOc1ccc(C2NC(=O)c3c(COC)cc(C)nc3N2Cc2ccccc2)cc1OC` (stereo not given) the value was inactive: 130%; for `Cc1ccc(Cn2cc(S(=O)(=O)c3cccc(Cl)c3)c(=O)c3cc(F)c(N4CCOCC4)cc32)cc1`, inactive: 85%.

In the case of `CC1Cc2ccccc2N1C(=O)CSc1nnc(-c2ccccc2Cl)o1` (stereo not given), the survival is active: 49%.

`C=CCOc1ccc(CNn2cn[nH]c2=S)cc1`: the survival is inactive: 77%.
